Among all 410,000 compounds or so, about 5,000 (1.2%) were called active. The shares of active, inactive and inconclusive entries below differ from those in the screen. Calls follow the shape of the dose curve; as a rule, active = well fitted inhibition curve with a large enough effect; inconclusive = small, poorly fitted or top-dose-only effect; inactive = no such curve, though single readings can be large or run the other way. Potencies beside an inconclusive call are fits to weak or partial responses and may not hold up.
Test: qHTS for Inhibitors of TGF-b; also: nearly all actives have a fitted effect of over 65% in size
Conditions: HepG2 CAGA-GFP TGF-b/SMAD3 reporter, GFP fluorescence, 18 h, TGF-beta stimulated, 500 pg/mL final; series mostly up to 46.1 µM; activity, negative = inhibition: at the top concentration
In short: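 Cell-based qHTS in HEPG2 carrying a CAGA-GFP Smad reporter; compounds added before 500 pg/mL final TGF-beta, 18 h incubation at 37 degrees C, GFP fluorescence quantified per cell by imaging cytometry.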
% is scaled to controls: 0 for no effect and ±100 for the full control effect; potency is read from the fitted curve at half-maximal effect; tags tell the direction and shape of the fitted curve.

Row | Structure (SMILES) | Potency | activity, negative = inhibition
1 | Cc1nc(-c2ccc(Cl)cc2)sc1C(=O)NN | inconclusive: 11.2 µM [inhibitor, partial curve] | –
2 | CN(C(=O)COC(=O)/C=C/c1ccc2ccccc2n1)C1CCS(=O)(=O)C1 (stereo not drawn) | inconclusive: 11.2 µM [inhibitor, partial curve, poor fit] | –
3 | NCC(c1ccccc1)c1c[nH]c2ccccc12 (stereo not drawn) | inconclusive: 35.5 µM [inhibitor, single point] | –
4 | CCOc1ccc2nc(N(CCN(C)C)C(=O)c3cc4ccccc4cc3OC)sc2c1 | inconclusive: 35.5 µM [inhibitor, partial curve, poor fit] | –
5 | C/C(=N\N1CCN(C2c3ccccc3-c3ccccc32)CC1)c1ccncc1 | inconclusive: 3.55 µM [inhibitor, single point] | –
6 | CS(=O)c1ccc(/C=C2\C=Cc3ccccc32)cc1 (stereo not drawn) | – | inactive: -7.58%
7 | O=C(/C=C/c1ccc(Cl)c([N+](=O)[O-])c1)c1ccc(O)cc1 | inconclusive: 7.94 µM [inhibitor, partial curve, poor fit] | –
8 | c1ccc(OCCn2cnc3ccccc32)cc1 | inconclusive: 35.5 µM [inhibitor, single point] | –
9 | COc1ccc(NC(=O)Cc2c[nH]c3ccccc23)cc1S(=O)(=O)N1CCCCC1 | inconclusive: 35.5 µM [inhibitor, partial curve, poor fit] | –
10 | CNC(=S)N(CCc1c(C)[nH]c2ccc(C)cc12)Cc1ccc(OC)c(OC)c1 | inconclusive: 25.1 µM [inhibitor, single point] | –
11 | Cc1cc(N/N=C/c2cccc(F)c2)nc(NCc2ccccc2)n1 | inconclusive: 17.8 µM [inhibitor, single point] | –
12 | O=C1c2ccccc2C(=O)N1CCn1nc(Cl)nc1Cl | inconclusive: 5.62 µM [inhibitor, single point] | –
13 | CC(OC(=O)C1CC(=O)N(Cc2ccccc2)C1)C(=O)Nc1cccc(C#N)c1 (stereo not drawn) | – | inactive: 0%
14 | Cc1csc2c(N3CCN(C(=O)c4ccc(C(C)(C)C)cc4)CC3)ncnc12 | active: 11.2 µM | –
15 | O=C(c1ccc(F)cc1)N1CCC(c2nc3ccccc3s2)CC1 | inconclusive: 35.5 µM [inhibitor, single point] | –
16 | Cc1ccc(CNC(=O)c2cc(-c3ccc(C)cc3)nc3n[nH]c(-c4cccc([N+](=O)[O-])c4)c23)cc1 | – | inactive: 14.1%
17 | Cc1ccc(C(=O)Nc2ccon2)cc1S(=O)(=O)N1CCOCC1 | – | inactive: 24.6%
18 | O=C(NNS(=O)(=O)c1ccc(CCCl)cc1)C(O)(c1ccccc1)c1ccccc1 | inconclusive: 22.4 µM [inhibitor, single point] | –
